From the supplement of paper PMC8728848
Some of the results follow.

Legend:
Assay in all cases: glycan array binding signal (z-score within array); higher = stronger binding
Details in all cases: glycan notation: IUPAC condensed, linker removed
Neu5Ac(a2-6)GalNAc = molecular target: Neu5Ac(a2-6)GalNAc
How it was run: (§1)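 The Consortium for Functional Glycomics database supplied 3228 glycan arrays, of which those lacking an available protein sequence were dropped. The binding signal, a within-array Z-score, was averaged across arrays of the same protein sequence and across linkers. Negative scores can be read as non-binding.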

[1] = molecular target: Neu5Ac(a2-6)GalNAc(b1-4)GlcNAc
How it was run: as §1

[2] = molecular target: Neu5Ac(a2-6)GlcNAc(b1-4)GlcNAc
How it was run: as §1

[3] = molecular target: Neu5Ac(a2-6)GlcNAc(b1-4)GlcNAc(b1-4)GlcNAc
How it was run: as §1

Neu5Ac(a2-8)Neu5Ac = molecular target: Neu5Ac(a2-8)Neu5Ac
How it was run: as §1

[4] = molecular target: Neu5Ac(a2-8)Neu5Ac(a2-3)Gal(b1-4)Glc
How it was run: as §1

[5] = molecular target: Neu5Ac(a2-8)Neu5Ac(a2-3)[GalNAc(b1-4)]Gal(b1-4)Glc
How it was run: as §1

[6] = molecular target: Neu5Ac(a2-8)Neu5Ac(a2-8)Neu5Ac
How it was run: as §1

[7] = molecular target: Neu5Ac(a2-8)Neu5Ac(a2-8)Neu5Ac(a2-3)Gal(b1-4)Glc
How it was run: as §1

[8] = molecular target: Neu5Ac(a2-8)Neu5Ac(a2-8)Neu5Ac(a2-3)[GalNAc(b1-4)]Gal(b1-4)Glc
How it was run: as §1

[9] = molecular target: Neu5Ac(a2-8)Neu5Ac(a2-8)Neu5Ac(a2-8)Neu5Ac(a2-3)[GalNAc(b1-4)]Gal(b1-4)Glc
How it was run: as §1

[10] = molecular target: Neu5Ac(b2-6)Gal(b1-4)GlcNAc
How it was run: as §1

Neu5Ac(b2-6)GalNAc = molecular target: Neu5Ac(b2-6)GalNAc
How it was run: as §1

[11] = molecular target: Neu5Ac9Ac(a2-3)Gal(b1-3)GlcNAc
How it was run: as §1

[12] = molecular target: Neu5Ac9Ac(a2-3)Gal(b1-4)GlcNAc
How it was run: as §1

[13] = molecular target: Neu5Ac9Ac(a2-6)Gal(b1-4)GlcNAc
How it was run: as §1

[14] = molecular target: Neu5Gc(a2-3)Gal(b1-3)GlcNAc
How it was run: as §1

[15] = molecular target: Neu5Gc(a2-3)Gal(b1-3)[Fuc(a1-4)]GlcNAc
How it was run: as §1

Neu5Gc(a2-3)Gal(b1-4)Glc = molecular target: Neu5Gc(a2-3)Gal(b1-4)Glc
How it was run: as §1

[16] = molecular target: Neu5Gc(a2-3)Gal(b1-4)GlcNAc
How it was run: as §1

[17] = molecular target: Neu5Gc(a2-3)Gal(b1-4)[Fuc(a1-3)]GlcNAc
How it was run: as §1

[18] = molecular target: Neu5Gc(a2-6)Gal(b1-4)GlcNAc
How it was run: as §1

Neu5Gc(a2-6)GalNAc = molecular target: Neu5Gc(a2-6)GalNAc
How it was run: as §1

[19] = molecular target: Neu5Gc(b2-6)Gal(b1-4)GlcNAc
How it was run: as §1

B1: StdA (Salmonella typhimurium), Q8Z3Z0 (protein)
chain: MAAAGMMYGASVFAADTTPTAGPFGSGKILFTGTITNSPCDIAPGDDAITVPFGQISYRKLNTANATTDSKPFTIHLQNCAFDPNETTIAGSAGKMSKVTVSFSGTADTSGKAYVSTGSAQHVGVQLLKGDNTSLITPNTPMPDGDAQQLQAGNNELNFFARLIALTDAATPGDVNASVTYTLKYL
- glycan array binding signal (z-score) (Neu5Ac(a2-6)GalNAc): -0.979
- glycan array binding signal (z-score) [1]: -0.061
- glycan array binding signal (z-score) [2]: -0.256
- glycan array binding signal (z-score) [3]: 0.072
- glycan array binding signal (z-score) (Neu5Ac(a2-8)Neu5Ac): -0.449
- glycan array binding signal (z-score) [4]: -0.042
- glycan array binding signal (z-score) [5]: -0.722
- glycan array binding signal (z-score) [6]: -0.667
- glycan array binding signal (z-score) [7]: 0.246
- glycan array binding signal (z-score) [8]: -0.401
- glycan array binding signal (z-score) [9]: -0.385
- glycan array binding signal (z-score) [10]: -0.717
- glycan array binding signal (z-score) (Neu5Ac(b2-6)GalNAc): -0.236
- glycan array binding signal (z-score) [11]: -0.687
- glycan array binding signal (z-score) [12]: -0.108
- glycan array binding signal (z-score) [13]: 1.09
- glycan array binding signal (z-score) [14]: -0.054
- glycan array binding signal (z-score) [15]: -0.195
- glycan array binding signal (z-score) (Neu5Gc(a2-3)Gal(b1-4)Glc): 0.825
- glycan array binding signal (z-score) [16]: -0.622
- glycan array binding signal (z-score) [17]: -0.554
- glycan array binding signal (z-score) [18]: -0.03
- glycan array binding signal (z-score) (Neu5Gc(a2-6)GalNAc): -0.486
- glycan array binding signal (z-score) [19]: 0.201
